This is an account of results in the supplement of paper PMC3724861.

The list shows a part of the results.

For this experiment, the system named is T1, Caupolican (Caup) homeodomain DNA-binding domain.
T1 sequence: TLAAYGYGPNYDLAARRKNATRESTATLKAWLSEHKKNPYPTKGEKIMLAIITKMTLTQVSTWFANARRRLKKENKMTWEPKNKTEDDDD
As to the kind of experiment: PBM E-score (8-mer, recovered from the published 9-mer minima) (E-score (dimensionless, -0.5 to 0.5)); Drosophila protein; higher = stronger relative binding preference, active = 0.31 or more. In outline: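 An enrichment score, with higher meaning stronger, expresses relative binding preference for each short DNA word. The protein used was Caup's homeodomain DNA-binding domain (residues 214-303), produced by in vitro transcription and translation and tested at 100 nM on custom-designed protein binding microarrays. The 8-mer values were recovered from published 9-mer scores, each equal to the lower of its two constituent 8-mer scores.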
With GATGATAA, the “PBM E-score” value is inactive: 0.0766.

As for AACTGAGA, the “PBM E-score” value was ≥ 0.0727. For ATTCAAGG, the “PBM E-score” value is inactive: -0.00866. As to GGGCAACA, the “PBM E-score” value is inactive: -0.045. Turning to CACAAGCA, the “PBM E-score” value was inactive: 0.15.

As to AAAAGGTG, the “PBM E-score” value was inactive: 0.00768.

Consider ATACTAGG, for which the “PBM E-score” value was inactive: 0.0747.

For the sequence ATCACGCG, the “PBM E-score” value is inactive: -0.0103. AAGGGCCC: the “PBM E-score” value is inactive: -0.216. Turning to CGCAACTC, the “PBM E-score” value is inactive: -0.0116.

In the case of GCGAGTCA, the “PBM E-score” value is inactive: -0.0896. Turning to TAGCACCA, the “PBM E-score” value is ≥ -0.00149. Regarding ACCCAGGT, the “PBM E-score” value is inactive: -0.155. The figure for AACAAAAA is inactive: 0.141. Take AGGTTAGG: the “PBM E-score” value was inactive: -0.124. Turning to ACGGAAAT, the “PBM E-score” value was ≥ 0.119. Turning to GAACGCAA, the “PBM E-score” value is inactive: 0.0319. As for ATCGTCGG, the “PBM E-score” value is inactive: -0.0995. For the sequence ACTCGTTC, the “PBM E-score” value was inactive: 0.123. The figure for ACTGCGTC is inactive: -0.0966; for CTTGCGAA it is inactive: -0.0441; for ATGCCGCC it is inactive: -0.143. On to CTTGCATC, for which the “PBM E-score” value was inactive: -0.0348.

CCAGCGAC: the “PBM E-score” value is inactive: -0.00733.

In the case of AAAAGACC, the “PBM E-score” value is inactive: -0.105. For the sequence CATGCAAC, the “PBM E-score” value was inactive: 0.179. For the sequence AGTATAGG, the “PBM E-score” value is inactive: -0.0204. With CTAATAAC, the “PBM E-score” value is inactive: 0.167.

GTGCGTGA: the “PBM E-score” value was inactive: 0.0161. With AATGCGTA the figure was inactive: 0.0947; with ACTCTTTA, inactive: 0.0106; with ACATCCTA, inactive: 0.253.

Consider CAAGGCTA, for which the “PBM E-score” value is inactive: -0.079.

Regarding CTCGCGCC, the “PBM E-score” value was inactive: -0.248. With AGCGACTA the figure was ≥ 0.0539; with AAAGGTCC, inactive: -0.11. The figure for AGAGAGTG is inactive: -0.0311; for ACCTTGGA it is inactive: -0.00716; for GCTTTTTA it is inactive: -0.0388. For the sequence ACTTATGA, the “PBM E-score” value is inactive: 0.0775. As to CTGGATAA, the “PBM E-score” value was inactive: -0.0558. Consider ACGTGAGA, for which the “PBM E-score” value was inactive: 0.00478. As to AGGCCCCC, the “PBM E-score” value is inactive: -0.398. As to TAAGTCGA, the “PBM E-score” value is inactive: 0.057. The figure for GTTCGATA is inactive: 0.093; for AATCCCCG it is inactive: -0.052; for ATCCGGGC it is inactive: -0.181. Take AATTAATT: the “PBM E-score” value is inactive: 0.0753. AGGACGTG: the “PBM E-score” value was inactive: -0.0199.

Regarding GTTCTCGA, the “PBM E-score” value is inactive: 0.0527. The figure for CTAGTGTC is inactive: 0.0923. The figure for AGTGACTC is inactive: -0.0228; for CATACGCC it is inactive: -0.0138; for ACCACGCA it is ≥ 0.0198. In the case of AGTTCTAA, the “PBM E-score” value was inactive: 0.0219. Take CCCCAATA: the “PBM E-score” value is inactive: -0.179. AAACCATC: the “PBM E-score” value was inactive: 0.0321. As to AACCGACG, the “PBM E-score” value was inactive: -0.0763.

On to CCGGAAGA, for which the “PBM E-score” value was inactive: -0.11. Turning to AGTAAGGC, the “PBM E-score” value was inactive: -0.0291. Take GAGTTGGC: the “PBM E-score” value is inactive: -0.126. As to GTTCCAGA, the “PBM E-score” value was inactive: -0.0409.

For ATTCAATC, the “PBM E-score” value is inactive: 0.062. The figure for GGGCCAAA is inactive: -0.135; for CGTTGATA it is inactive: 0.0601. As for GCACATCA, the “PBM E-score” value was inactive: 0.0977. Take AGGAGATG: the “PBM E-score” value is inactive: 0.0724. The figure for TAGACTAA is inactive: -0.0471; for CACTGTGG it is inactive: -0.0303. The figure for ACGTACAG is inactive: 0.103; for ACGACGCG it is inactive: 0.0049; for GCAGCAGC it is inactive: -0.0927.

With ATGGTTCG, the “PBM E-score” value is inactive: -0.0328. As for GGTCAATA, the “PBM E-score” value is inactive: 0.154. Turning to GAAGGTCC, the “PBM E-score” value was inactive: -0.184. Regarding ACACCTGG, the “PBM E-score” value was inactive: 0.0205. For the sequence ACGTTACC, the “PBM E-score” value was inactive: 0.0329. As to TGGGTTAA, the “PBM E-score” value is inactive: 0.0892. The figure for GTGTCACA is inactive: 0.29; for CCAGGGAA it is inactive: -0.187; for CGATGGGA it is inactive: -0.123.

Consider AGATAACT, for which the “PBM E-score” value is inactive: 0.0653. With ATTTGCCA, the “PBM E-score” value was inactive: -0.0475.

Regarding CATATGCC, the “PBM E-score” value was inactive: -0.0694. The figure for TCTCACCA is inactive: -0.0261; for GCGGATCA it is inactive: -0.0749.

Take ATGGTGTA: the “PBM E-score” value is ≥ 0.292. The figure for GGAGCACA is inactive: -0.0222; for AGCGCTCC it is inactive: -0.211. With AAAATTTG the figure was inactive: 0.0701; with GGTGCGTA, inactive: -0.118; with CAAAAATC, inactive: 0.0293.

As for ATGCTAAA, the “PBM E-score” value was inactive: 0.0404. In the case of AGCGTAAA, the “PBM E-score” value is inactive: -0.00289.

Consider AACACGCG, for which the “PBM E-score” value is inactive: 0.269.

Take ACCGCAAT: the “PBM E-score” value is inactive: -0.0384. With CATCTTGC the figure was inactive: 0.0649; with CCACAGCA, inactive: 0.0235; with ATGAAGTG, inactive: -0.0199. Consider GTAACCGA, for which the “PBM E-score” value is inactive: -0.00016. Turning to ATCAGTGC, the “PBM E-score” value is inactive: 0.0637.

In the case of CTGAGAGA, the “PBM E-score” value was inactive: -0.117. The figure for GCCATGAC is inactive: -0.0484. The figure for GTAATTCA is inactive: 0.174; for ATGTACGA it is active: 0.395; for CAGGAACG it is inactive: 0.00533. On to AAAAGCGT, for which the “PBM E-score” value is inactive: -0.0853.

Take AAGCTATC: the “PBM E-score” value is inactive: 0.0157. Turning to ACCTCCAG, the “PBM E-score” value was inactive: -0.111.

As to CGACAGGC, the “PBM E-score” value was inactive: -0.0503. As for ACGGGTAG, the “PBM E-score” value is inactive: -0.0971. With ACAGTGCA the figure was ≥ 0.0844.
